# Source: the RNAGym collection of RNA variant scans (doi:10.7554/elife.90254)
# The source gives no read counts; variants with many changes may rest on few reads.
# B1: LINE1-mini (parent)
# chain: GGCAGAGCUCAACACAGCGUGGCAAAGUGGCUGUGGCUAGACUGCC
# Variants of: B1
# Experiment: self-cleavage, relative activity (ratio to wild type); higher = more cleavage; in vitro, sequencing; the parent is a self-cleaving ribozyme
row,Variant,self-cleavage
1,C18A G35C G36A,0.13
2,C18A G35C U43G,0
3,C18A G36A C37G,0.07
4,C18A G36U C37U,0.04
5,C18A G36U G40C,0.01
6,C18A G44A C45G,0.09
7,C18A G44C C46G,0.02
8,C18A G44U C46A,0.12
9,C18A U20A A25U A26G,2.13
10,C18A U20A A26C U28C U34A,0.03
11,C18A U20A C45A,0.29
12,C18A U20A G21A C42G,0
13,C18A U20A G22A,0.68
14,C18A U20A G33C G36C,0.01
15,C18A U20A U28A C31U A39U U43G,0
16,C18A U20A U38C,0.08
17,C18A U20C A26C C31G G33U G35A U38G,0.01
18,C18A U20C A26U G40U,0.02
19,C18A U20C A41U,0.15
20,C18A U20C G27U,0.1
21,C18A U20C G36U C37A,0.05
22,C18A U20G A25C,0.17
23,C18A U20G G21U,0.16
24,C18A U20G G22C U34A G35C,0.03

row,Variant,self-cleavage
1,C18A U20G G44U,0.04
2,C18A U20G U43A,0.04
3,C18A U28A C37G U43G,0.02
4,C18A U28A U32A,0.02
5,C18A U28C C46A,0.22
6,C18A U28C G29U G36U C37U,0.01
7,C18A U28C G35U,0.1
8,C18A U28G C45U,0.06
9,C18A U28G G35U,0.09
10,C18A U32G C37A,0
11,C18A U32G C45A,0.03
12,C18A U32G C45U,0.04
13,C18A U32G C46G,0.02
14,C18A U34G A41G,0.02
15,C18A U38A A39U,0.61
16,C18A U38G A41C G44U C45U C46A,0.01
17,C18A U43C C45U,0.04
18,C18A U43G C45G,0.04
19,C18G A24C C37U,0.02
20,C18G A24G C31U,0
21,C18G A24G G27U G33A,0.02
22,C18G A24G G40C,0.03
23,C18G A24G U32C G40A,0.06
24,C18G A24U A26U,0.07

row,Variant,self-cleavage
1,C18G A24U C42G,0
2,C18G A24U U32G,0.09
3,C18G A25C C31U G36C,0.05
4,C18G A25C G35U U43G C46A,0.02
5,C18G A25G U32C,0.02
6,C18G A25U C31G,0.05
7,C18G A25U G27U U32C C42G,0.03
8,C18G A25U G35C,0.06
9,C18G A26C G33A C46G,0.03
10,C18G A26U A39G C42A,0.02
11,C18G A26U G27C U32G C42U,0.01
12,C18G A26U G27U G44A,0.2
13,C18G A26U G36A,0.01
14,C18G A26U U43C G44A C45G,0.02
15,C18G A39C C42U,0.05
16,C18G C23A A26C,0.38
17,C18G C23A C31U,0.02
18,C18G C23A G40C C42A G44A,0.05
19,C18G C23U G27C,0.47
20,C18G C23U G35A G36U,0.04
21,C18G C23U U34A,0.04
22,C18G C31G A39C,0
23,C18G C31G G33A A41U,0.03
24,C18G C31U U34A C37G,0.02

row,Variant,self-cleavage
1,C18G C37A G40U C42A,0.11
2,C18G C37U C46U,0.07
3,C18G C42G C45U,0.02
4,C18G G19A A24C G27C G30A C31A,0.14
5,C18G G19A A26U,0.11
6,C18G G19A G21A G35U,0.01
7,C18G G19A G29A C37G,0.05
8,C18G G19C C31U G40C,0.01
9,C18G G19C U28C G33U C46G,0.27
10,C18G G19U G22U G33U,0.15
11,C18G G19U G27U,0.1
12,C18G G19U U38C C42U,0.04
13,C18G G21A A41C,0.05
14,C18G G21A C23A G30C C31U,0.11
15,C18G G21A U28A,0.15
16,C18G G21C G40U,0.01
17,C18G G21U C45G,0.09
18,C18G G21U U43G,0
19,C18G G22A G30C,0.29
20,C18G G22A U32G,0.05
21,C18G G22C C45U,0.29
22,C18G G22C G36U,0.07
23,C18G G22U A26C,0.63
24,C18G G22U C23A G27U C31G U34C,0.15

row,Variant,self-cleavage
1,C18G G22U C45G,0.03
2,C18G G22U G30U G35C,0.03
3,C18G G22U U38A,0.25
4,C18G G22U U43A,0.02
5,C18G G27A U32A U38C C45A,0.1
6,C18G G27U C45A,0.2
7,C18G G27U C46A,0.34
8,C18G G27U U28A,0.07
9,C18G G29A A41U C45U,0.12
10,C18G G29A U32G G40A,0.11
11,C18G G29C U34C,0.02
12,C18G G29U C37U,0.02
13,C18G G29U G44A,0.49
14,C18G G30A G33C U34C G40A A41G,0.01
15,C18G G30C C37U,0.03
16,C18G G30C C45U,0.59
17,C18G G33U C42G,0.06
18,C18G G35C C42U,0.08
19,C18G G35C G36C G40C,0.02
20,C18G G35C G40A,0.02
21,C18G G35U C42U,0.05
22,C18G G36U C37A U38A,0
23,C18G G40A A41C C45G,0.04
24,C18G G40U C45U,0.03

row,Variant,self-cleavage
1,C18G U20A A26C U34A A41U C46U,0.01
2,C18G U20C A26G,0.02
3,C18G U20C G30C,1.11
4,C18G U20G A39G,0.04
5,C18G U20G G22U C42A,0.04
6,C18G U20G U28G,0.02
7,C18G U32A A39G C46A,0
8,C18G U32C A39U,0.01
9,C18G U32C G33A,0.05
10,C18G U32C G33U G40U,0.02
11,C18G U32G G33C G36A C42U,0.04
12,C18G U34A C37U,0.11
13,C18G U34G G40C,0.05
14,C18G U38G A41G,0
15,C18U A24C G44C C45U,0.12
16,C18U A24G C45G,0.05
17,C18U A24G U28C C45U,0.28
18,C18U A24U C31G G44U,0.04
19,C18U A25C A26U,0.01
20,C18U A25C C37U A39G,0.04
21,C18U A25C C46A,0.06
22,C18U A25C U38A C46G,0.13
23,C18U A25G A39C,0.24
24,C18U A25G C46U,0.19

row,Variant,self-cleavage
1,C18U A25G G30C,0.12
2,C18U A25G G35U,0.03
3,C18U A25U U38G A39G,0.02
4,C18U A26G C31G,0.05
5,C18U A26U A41G,1.1
6,C18U A26U C37U,0.14
7,C18U A39G A41C C45A,0.01
8,C18U A39G G44A,0.23
9,C18U C23A A24U G33U G40C,0.02
10,C18U C23A A39G U43A,0.1
11,C18U C23A G30U U32G G44U,0.05
12,C18U C23A G33A G35C U38C,0.05
13,C18U C23A G35A,0.06
14,C18U C23A G44U,0.02
15,C18U C23A U38G,0.01
16,C18U C23A U43A C45U,0.05
17,C18U C23G G30A,0.16
18,C18U C23G U34A,0.03
19,C18U C23G U43C,0.01
20,C18U C31A A39C,0.05
21,C18U C31A C45A,0.05
22,C18U C31A G40U,0.01
23,C18U C31A G44U,0.05
